Experimental data: article PMC4336329 (PLoS ONE, 2015)
The whole screen tested about 310,000 compounds, of which about 2,200 (0.71%) showed an effect of 50% or more. The effect is printed as a negative number. The list shows a part of the results.

Each compound was assayed against human ether-à-go-go-related gene (hERG) potassium channel (human, UniProt Q12809) (assay: primary screen, population patch clamp on CHO cells stably expressing hERG).
Sequence of human ether-à-go-go-related gene (hERG) potassium channel (Q12809 whole entry, looked up): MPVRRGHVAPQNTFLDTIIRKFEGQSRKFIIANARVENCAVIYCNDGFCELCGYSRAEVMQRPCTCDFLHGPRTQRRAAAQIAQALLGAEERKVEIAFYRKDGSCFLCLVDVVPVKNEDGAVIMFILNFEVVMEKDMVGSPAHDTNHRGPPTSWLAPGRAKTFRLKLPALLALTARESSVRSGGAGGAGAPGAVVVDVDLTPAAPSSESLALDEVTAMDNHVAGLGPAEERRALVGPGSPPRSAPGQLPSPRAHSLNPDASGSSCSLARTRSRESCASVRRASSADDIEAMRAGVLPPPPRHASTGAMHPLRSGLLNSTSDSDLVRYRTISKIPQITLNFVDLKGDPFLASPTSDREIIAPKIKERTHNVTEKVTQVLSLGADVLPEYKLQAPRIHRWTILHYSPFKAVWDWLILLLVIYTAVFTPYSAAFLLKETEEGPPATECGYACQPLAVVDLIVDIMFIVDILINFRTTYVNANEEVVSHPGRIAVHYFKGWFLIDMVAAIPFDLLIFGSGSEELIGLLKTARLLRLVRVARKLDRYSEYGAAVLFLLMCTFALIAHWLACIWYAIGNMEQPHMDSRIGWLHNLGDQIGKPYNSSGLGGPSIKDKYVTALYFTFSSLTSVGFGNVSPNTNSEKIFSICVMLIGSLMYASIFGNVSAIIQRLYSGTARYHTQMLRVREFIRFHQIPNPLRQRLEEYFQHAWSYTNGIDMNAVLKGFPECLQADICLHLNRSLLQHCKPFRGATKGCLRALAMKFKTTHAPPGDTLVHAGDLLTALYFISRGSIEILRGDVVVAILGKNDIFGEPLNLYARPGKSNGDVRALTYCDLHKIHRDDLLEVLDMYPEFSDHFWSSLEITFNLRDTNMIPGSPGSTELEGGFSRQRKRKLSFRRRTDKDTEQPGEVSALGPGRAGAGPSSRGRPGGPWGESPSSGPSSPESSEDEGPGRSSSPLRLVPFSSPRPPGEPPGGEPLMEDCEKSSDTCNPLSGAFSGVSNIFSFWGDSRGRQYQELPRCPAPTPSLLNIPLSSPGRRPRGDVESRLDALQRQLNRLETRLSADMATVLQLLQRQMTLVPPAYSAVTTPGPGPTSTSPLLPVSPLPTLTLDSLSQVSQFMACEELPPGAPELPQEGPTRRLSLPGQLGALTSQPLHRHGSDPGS

Going from `COc1ncccc1C(=O)NC1CCCc2c1cnn2-c1ccc(C)c(C)c1` (centres unmarked) to `Cc1cc2cc(C)c(NCCNC(=O)c3ccccc3)nc2cc1C`, the “hERG current change (%, negative = inhibition) at 1uM” value falls from 11.8% to 8.81%.

Compared with `Cc1cc(C)n2c(SCC#N)nnc2n1`, `COC(=O)c1ccc(CSc2ccc3nnc(-c4cccc(F)c4)n3n2)o1` is lower in “hERG current change (%, negative = inhibition) at 1uM” value: 4.09% for the first, -8.49% for the second.

First: COc1ccc(NC(C)=O)cc1S(=O)(=O)N1CCN(C/C=C/c2ccccc2)CC1
Second: O=C(Cc1cccs1)Nc1ccc(F)c(S(=O)(=O)N2CCOCC2)c1
The “hERG current change (%, negative = inhibition) at 1uM” value of the first is lower: -48.1% for the first, -1.04% for the second.

First: CCC(CC)c1nnc(NC(=O)CCN2C(=O)c3ccccc3C2=O)s1
Second: COc1ccccc1C(=O)Nc1nnc(-c2ccccc2)s1
The “hERG current change (%, negative = inhibition) at 1uM” value of the first is lower: 10.8% for the first, 17.2% for the second.

First: COc1ccccc1Nc1nc(N)nc(CSc2ncccn2)n1
Second: O=C(CSc1nnc(-c2ccccn2)o1)Nc1ccc(F)cc1
The “hERG current change (%, negative = inhibition) at 1uM” value of the first is higher: -1.02% for the first, -6.07% for the second.

Going from `O=C(c1ccc(Cl)c(S(=O)(=O)N2CCOCC2)c1)N1CCCC1` to `O=C(c1ccc(-n2cccc2)cc1)N1CCOCC1`, the “hERG current change (%, negative = inhibition) at 1uM” value falls from 11.4% to 7.49%.

Compared with `Cc1cccc(-n2c(SCC(=O)O)nc3sc4c(c3c2=O)CCCC4)c1`, `Cc1c(CCC(=O)N2CCC[C@H]2C(=O)O)c(=O)oc2cc3oc4c(c3cc12)CCCC4` is lower in “hERG current change (%, negative = inhibition) at 1uM” value: 11% for the first, 0.258% for the second.

First: CCNc1ccc(Br)cc(C(=O)/C=C/c2ccc3c(c2)OCO3)c1=O
Second: Cc1ccc(NC(=O)N(Cc2ccco2)C(C)c2ccco2)cc1C (centres unmarked)
The “hERG current change (%, negative = inhibition) at 1uM” value of the first is lower: -8.66% for the first, 2.29% for the second.

First: O=C(NC(=S)Nc1cccc2c(O)cccc12)c1ccco1
Second: O=C(CCNC(=O)c1ccc([N+](=O)[O-])cc1)NCCc1ccccc1
The “hERG current change (%, negative = inhibition) at 1uM” value of the first is lower: -7.78% for the first, 2.9% for the second.

Compared with `O=C(NCC1CCCO1)c1c(O)c2c([nH]c1=O)CCCC2` (centres unmarked), `CC1CN(CCC(=O)Nc2ccc3c(c2)CCC3)CC(C)O1` (centres unmarked) is higher in “hERG current change (%, negative = inhibition) at 1uM” value: 11.7% for the first, 16.2% for the second.

Compared with `COC(=O)N1C(=O)[C@](CC(C)C)(c2ccccc2)N1C(=O)OC`, `NC(=O)N/N=C/c1sc(=O)n(-c2ccccc2)c1Cl` is lower in “hERG current change (%, negative = inhibition) at 1uM” value: 15.8% for the first, 13.3% for the second.

First: Cc1onc(-c2c(F)cccc2Cl)c1C(=O)NCc1ccc(S(N)(=O)=O)cc1
Second: O=S(=O)(NCCc1ccc(Cl)cc1)c1cccc2cccnc12
The “hERG current change (%, negative = inhibition) at 1uM” value of the first is lower: 7.29% for the first, 7.32% for the second.

Going from `O=C(O)c1oc2ccccc2c1CN1CCN(c2ccccc2)CC1` to `CN1CCN(c2ccccc2NC(=O)Cc2ccc(Cl)cc2)CC1`, the “hERG current change (%, negative = inhibition) at 1uM” value falls from 4.59% to -59.4%.

Compared with `CC(NC(=O)c1ccc([N+](=O)[O-])o1)C12CC3CC(CC(C3)C1)C2` (centres unmarked), `Cc1cc(F)ccc1NC(=O)C1CSC2(C)CCC(=O)N12` (centres unmarked) is lower in “hERG current change (%, negative = inhibition) at 1uM” value: 9.4% for the first, -0.718% for the second.

First: CC(C)(C)CC(=O)NCCCCCCNC(=O)CC(C)(C)C
Second: CCOc1ccc(CCNC(=O)CCNS(=O)(=O)c2ccc3c(c2)CCN3C(C)=O)cc1OCC
The “hERG current change (%, negative = inhibition) at 1uM” value of the first is higher: 10.6% for the first, 10% for the second.

Compared with `COc1ccccc1N(C(=O)c1snc(C(N)=O)c1N)C(C(=O)NC1CCCCC1)c1cccc(OC)c1OC` (centres unmarked), `COc1ccc(C2(c3ccc(OC)cc3)NC(=O)N(CC(=O)NC3(C#N)CCCCC3)C2=O)cc1` is lower in “hERG current change (%, negative = inhibition) at 1uM” value: -0.583% for the first, -1.53% for the second.

Compared with `CC(C)(CN=C1NS(=O)(=O)c2ccccc21)CNC(=O)c1ccccc1`, `Cc1ccc(NCC(=O)N/N=C\C(Br)=C\c2ccccc2)cc1` is higher in “hERG current change (%, negative = inhibition) at 1uM” value: -0.214% for the first, 0.112% for the second.

Going from `CCCCOc1ccc(N=Cc2cccs2)cc1` to `C/C(=N\NC(=O)CCCNc1cccc(C)c1)c1ccncc1`, the “hERG current change (%, negative = inhibition) at 1uM” value rises from 0.628% to 12.2%.

First: O=C(CN1CCOCC1)Nc1nc2ccc(Cl)cc2s1
Second: Cc1ccccc1OCc1nc(C#N)c(N2CCCC2)o1
The “hERG current change (%, negative = inhibition) at 1uM” value of the first is lower: -0.395% for the first, 9.91% for the second.

Compared with `O=C(CC1C(=O)NCCN1Cc1ccccc1C(F)(F)F)NCCn1cccn1` (centres unmarked), `CCCC1=C(C(=O)OCC)C2(C(=O)Nc3ccccc32)C(C#N)=C(N)O1` (centres unmarked) is higher in “hERG current change (%, negative = inhibition) at 1uM” value: 4.71% for the first, 9.03% for the second.

Compared with `CC1CC(C)CN(c2oc(-c3ccccc3F)nc2C#N)C1` (centres unmarked), `CCCC1C2CN(C(C)=O)CC=C2C(C#N)=C(N)C1(C#N)C#N` (centres unmarked) is lower in “hERG current change (%, negative = inhibition) at 1uM” value: 13% for the first, -0.676% for the second.

Compared with `CC(=O)c1ccc(Oc2ccc(C(=O)c3ccc(C)c(C)c3)cc2[N+](=O)[O-])cc1`, `COc1n[nH]c(C(=O)Nc2cc(F)ccc2C)c1[N+](=O)[O-]` is higher in “hERG current change (%, negative = inhibition) at 1uM” value: 5.4% for the first, 16.2% for the second.
